This is one part of the list. At the low end of the ranking the order means little.

This experiment addresses T1, GST-Rok (full length) (UniProt O34857).
T1 sequence: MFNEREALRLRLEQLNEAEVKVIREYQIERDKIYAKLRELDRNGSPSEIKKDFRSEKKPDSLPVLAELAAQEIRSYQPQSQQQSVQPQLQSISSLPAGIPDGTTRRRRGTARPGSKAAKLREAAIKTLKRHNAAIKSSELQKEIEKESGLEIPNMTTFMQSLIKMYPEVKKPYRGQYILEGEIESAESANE
Description: protein binding microarray.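 Note: rank score from −0.5 (least bound) to 0.5 (best bound).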 As to conditions: Rok is a gene silencer of Bacillus subtilis; high values mean tight binding; most listed sequences are background and not binding sites; double strand, one strand shown.
In turn, AGGACAAG had a binding signal of -0.172 E-score.

Turning to CGCCATAG, the binding signal is -0.165 E-score.

Turning to AGAGCACT, the binding signal was -0.232 E-score.

CTTACGGC had a binding signal of -0.153 E-score.

The sequence CGCATCAC came in with a binding signal of -0.232 E-score.

The sequence CTGTTCCA returned a binding signal of -0.0439 E-score.

On to AGATTGGG, for which the binding signal is -0.0439 E-score.

Turning to AGGGAACT, the binding signal is -0.0535 E-score.

AGACAGAG had a binding signal of 0.0255 E-score.

Sequence GCGACACA came in with a binding signal of -0.0486 E-score.

The sequence ACATAGTG gave a binding signal of 0.0542 E-score.

GTTGAATA registered a binding signal of 0.0162 E-score.

AAAAGCCG: the binding signal came out at 0.105 E-score.

In the case of GCTCGCCA, the binding signal was -0.108 E-score.

For GATTAGAC, the binding signal was -0.0922 E-score.

AAAACCTC: the binding signal was -0.00614 E-score.

With GACCGCCC, the binding signal was -0.384 E-score.

For CATAATTA, the binding signal is 0.362 E-score.

Sequence AGTCAATG registered a binding signal of 0.0519 E-score.

The sequence AGAGTACA had a binding signal of 0.142 E-score.

In turn, ATTCATAA registered a binding signal of 0.239 E-score.

CCGTAGCA gave a binding signal of -0.00236 E-score.

In turn, GGTCGGAC registered a binding signal of -0.126 E-score.

Regarding CCCTAGTA, the binding signal was determined as 0.252 E-score.

Take CTGCTTAC: the binding signal stood at 0.0646 E-score.

As to ATAAGGGG, the binding signal is -0.275 E-score.

On to ACGATGAC, for which the binding signal was -0.16 E-score.

AAATCGTT showed a binding signal of 0.0442 E-score.

As to GCGGCGAC, the binding signal is -0.216 E-score.

Consider GGGGCTAC, for which the binding signal is -0.226 E-score.

For ACCCACAA, the binding signal was -0.0366 E-score.

With AGACTCAT, the binding signal is -0.207 E-score.

In turn, CTAATGAG came in with a binding signal of -0.0834 E-score.

The sequence GGGAAAAA gave a binding signal of -0.0456 E-score.

As for CGAGGGCC, the binding signal is -0.381 E-score.

On to TTGAACAA, for which the binding signal came out at 0.0376 E-score.

With AGGTTCTA, the binding signal came out at 0.134 E-score.

Turning to GTAGCTAC, the binding signal came out at 0.436 E-score.

The sequence CTTACACA had a binding signal of 0.068 E-score.

Sequence AAGCTCCA came in with a binding signal of -0.0271 E-score.

The sequence TACGGCTA returned a binding signal of 0.15 E-score.

Turning to CGGTGCAC, the binding signal is -0.287 E-score.

The sequence CGACGACG returned a binding signal of -0.00922 E-score.

Sequence TACAAGGA registered a binding signal of -0.0186 E-score.

The sequence CCCGGCGA gave a binding signal of -0.269 E-score.

With AATATCGA, the binding signal was 0.29 E-score.

Consider GATAGCGA, for which the binding signal worked out at 0.106 E-score.

GCGTTTGA came in with a binding signal of -0.0776 E-score.

In turn, CGACCACC returned a binding signal of -0.23 E-score.

In turn, ACCCTTCG returned a binding signal of -0.264 E-score.

On to ATCTGTCA, for which the binding signal was -0.194 E-score.

For the sequence GAGCGAGA, the binding signal is -0.17 E-score.

In turn, CATCGTGG showed a binding signal of -0.16 E-score.

For the sequence GAACGACA, the binding signal came out at 0.108 E-score.

In the case of CGCCCGGC, the binding signal is -0.448 E-score.

CTCTTTCA came in with a binding signal of -0.0325 E-score.

With ACCGGCCC, the binding signal was -0.212 E-score.

Sequence CATCCCTC displayed a binding signal of -0.341 E-score.

Sequence CGGGCACG came in with a binding signal of -0.221 E-score.

Turning to TACATTAA, the binding signal came out at 0.26 E-score.

Consider TATCTCGA, for which the binding signal was 0.209 E-score.

Consider CAAGAGCC, for which the binding signal was -0.306 E-score.

On to CGACGGTA, for which the binding signal was 0.136 E-score.

Sequence AGCTGTTC gave a binding signal of 0.0695 E-score.

CTATACCC came in with a binding signal of 0.0163 E-score.

Regarding GCACGCCA, the binding signal was -0.0206 E-score.

In turn, AGGTAGAC gave a binding signal of 0.191 E-score.

Sequence GCTAGATA yielded a binding signal of 0.342 E-score.

With TCGCGTCA, the binding signal is -0.0924 E-score.

With ACTCTAAT, the binding signal was found to be 0.176 E-score.

Regarding AACCGATC, the binding signal is 0.102 E-score.

On to ACGCAACT, for which the binding signal worked out at 0.151 E-score.

In the case of ATCAGGAG, the binding signal was -0.132 E-score.

The sequence AAAAACTG returned a binding signal of -0.16 E-score.

The sequence ACTCCTGC showed a binding signal of -0.0912 E-score.

As for ACCTATGG, the binding signal was -0.177 E-score.

For ATGCCTGA, the binding signal is -0.0706 E-score.

As to CCTGCTGA, the binding signal is -0.0558 E-score.

With AGCGGGTC, the binding signal is -0.172 E-score.

The sequence CCGACACA gave a binding signal of 0.0303 E-score.

For CTTTCCCC, the binding signal was -0.209 E-score.

AATCCTCG came in with a binding signal of -0.304 E-score.

As to GGTAGGTA, the binding signal amounted to 0.304 E-score.

Regarding ACCGCGTG, the binding signal was -0.248 E-score.

On to ACTCAGGG, for which the binding signal was 0.0572 E-score.

Sequence AGGCCAAT gave a binding signal of -0.184 E-score.

In turn, CCCATCAA yielded a binding signal of -0.0624 E-score.

CCGGAACG showed a binding signal of -0.14 E-score.

GAAGATCA gave a binding signal of -0.0359 E-score.

In turn, ACCAAAAT registered a binding signal of 0.0829 E-score.

As to CACCGCTG, the binding signal was -0.0431 E-score.

In turn, CATTAACA displayed a binding signal of 0.116 E-score.

With CCCTCTAA, the binding signal was -0.121 E-score.

Sequence AAACCTGA registered a binding signal of -0.0928 E-score.

GTTGCCGA returned a binding signal of -0.0998 E-score.

For ACTTACCG, the binding signal worked out at 0.239 E-score.

CTAGGTAA yielded a binding signal of 0.16 E-score.

Sequence AGCGAAGG registered a binding signal of -0.207 E-score.

In turn, CAGTGATC returned a binding signal of -0.166 E-score.

Sequence GTAAACCA came in with a binding signal of 0.159 E-score.

The sequence AGGATTGG returned a binding signal of -0.238 E-score.

ATTCCCTC returned a binding signal of -0.0733 E-score.

For CTGCGTTA, the binding signal was -0.126 E-score.

GGGTTTAC: the binding signal was -0.0396 E-score.

In the case of GACGCCGA, the binding signal was -0.235 E-score.

ACCTCCGG showed a binding signal of -0.153 E-score.

Sequence CTCCCCAG yielded a binding signal of -0.37 E-score.

On to CCCTATCA, for which the binding signal came to 0.00383 E-score.

For the sequence CATAGTCC, the binding signal was -0.169 E-score.

Sequence GCGAGCAA came in with a binding signal of -0.0525 E-score.

Turning to GGTGACAA, the binding signal is -0.0428 E-score.

CGACGTCG showed a binding signal of -0.259 E-score.

For GCGCCTCC, the binding signal is -0.312 E-score.

As for ACCTCCAC, the binding signal is -0.156 E-score.

Turning to AAGGTTAA, the binding signal was 0.0104 E-score.

The sequence CGCCCTAA gave a binding signal of -0.0921 E-score.

For the sequence ATAACTCA, the binding signal was found to be 0.191 E-score.

On to CATAGATC, for which the binding signal stood at 0.15 E-score.

AGCCACCC returned a binding signal of -0.375 E-score.

The sequence GGTCATAC had a binding signal of -0.0197 E-score.

CCGCTTTC returned a binding signal of -0.101 E-score.

On to AACTTCAA, for which the binding signal worked out at 0.167 E-score.

Sequence ATCAGATG showed a binding signal of 0.148 E-score.

As for AGAGAATG, the binding signal was found to be 0.0945 E-score.

As to CCCCCAAC, the binding signal is -0.337 E-score.

On to CGCTTACC, for which the binding signal was -0.136 E-score.

On to ATGGCTAA, for which the binding signal was 0.0615 E-score.

Consider ATACAGAC, for which the binding signal turned out to be 0.0104 E-score.

The sequence CGTCACCC showed a binding signal of -0.367 E-score.

CTGAATGA returned a binding signal of -0.06 E-score.

AAGAGCAG came in with a binding signal of -0.162 E-score.

The sequence AAGTCCAC displayed a binding signal of -0.189 E-score.

Sequence AACGTTGT had a binding signal of 0.217 E-score.

In the case of ACCAGACG, the binding signal is -0.115 E-score.

On to ACGCAGGC, for which the binding signal was -0.33 E-score.

AGCGCGGC had a binding signal of -0.0873 E-score.

GGGTTCGA displayed a binding signal of -0.0956 E-score.

TCTATAGA returned a binding signal of 0.36 E-score.

In turn, ACCGGCAG registered a binding signal of -0.0541 E-score.

For GAGGGTAC, the binding signal was -0.3 E-score.

Take AGAACCGA: the binding signal came out at 0.0539 E-score.

For TAATTGGA, the binding signal was found to be 0.126 E-score.

Consider ACTTGGCT, for which the binding signal was -0.00011 E-score.

Consider CCGGGCAG, for which the binding signal is -0.228 E-score.

Take ACAGGCAG: the binding signal was -0.225 E-score.

Sequence ACCGTGTA had a binding signal of 0.135 E-score.

Take ATCTAGCC: the binding signal turned out to be 0.178 E-score.

Regarding GACGTATC, the binding signal was 0.0776 E-score.

Consider GTTATGAA, for which the binding signal is 0.155 E-score.

CCCTGTAA came in with a binding signal of -0.146 E-score.

GGACGTCA yielded a binding signal of -0.122 E-score.

CGGGGTAC registered a binding signal of -0.135 E-score.

Turning to TAATACGA, the binding signal stood at 0.377 E-score.

Turning to CGCAGGTC, the binding signal was -0.218 E-score.

In turn, CATATTGC came in with a binding signal of 0.15 E-score.

AGTAATAG displayed a binding signal of 0.365 E-score.

As for CAAGCACG, the binding signal was -0.122 E-score.

Consider CACTACGG, for which the binding signal was 0.0917 E-score.

Sequence AAACGCGA yielded a binding signal of -0.143 E-score.

In turn, CGTGCGTC registered a binding signal of -0.164 E-score.

Take CCTAGCCG: the binding signal was -0.315 E-score.

As to GAAAGTGA, the binding signal worked out at 0.117 E-score.

Sequence GGGCCCAA registered a binding signal of -0.342 E-score.

In the case of CGCAGGAA, the binding signal is -0.0796 E-score.

With GTTTGTCA, the binding signal amounted to 0.0951 E-score.

For AATGGCTG, the binding signal was found to be 0.00106 E-score.

In turn, GACAGGTA gave a binding signal of 0.0982 E-score.

Consider AATGTTGA, for which the binding signal was -0.04 E-score.

In turn, AACCCAGT had a binding signal of -0.103 E-score.

Regarding CCGCGCCG, the binding signal is -0.323 E-score.

Take AGCAAAAG: the binding signal was -0.151 E-score.

AGCTTATA had a binding signal of 0.177 E-score.

For the origin of these results see article PMC6212790.
